Reference: paper doi:10.1101/2022.08.08.503141 (bioRxiv, 2022)

Molecular target: T1, tandem harmonin homology domains (HHD1+2) of human RTEL1, residues 886-1140 (human, UniProt Q9NZ71-6 886-1140)
T1 sequence: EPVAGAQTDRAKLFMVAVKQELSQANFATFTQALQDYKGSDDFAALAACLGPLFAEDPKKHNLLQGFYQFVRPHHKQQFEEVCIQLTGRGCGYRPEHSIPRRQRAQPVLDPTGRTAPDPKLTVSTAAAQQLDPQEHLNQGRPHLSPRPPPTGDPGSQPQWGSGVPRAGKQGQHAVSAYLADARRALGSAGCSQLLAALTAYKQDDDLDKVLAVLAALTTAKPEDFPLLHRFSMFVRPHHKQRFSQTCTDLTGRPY
Assay: NMR titration

- binding result: binds
B1: winged-helix domain 32C of human RPA ([…] of RPA2) (domain or fragment)
chain: not shown
